What all share (assay): SPR
On the technique in general: Surface plasmon resonance follows binding to a sensor surface in real time, without labels.

The target of assay [1] is T1, human sortilin (R&D Systems, 3154-ST) (human, UniProt Q99523 78-755).
The target in assay [2] is T2, murine sortilin (R&D Systems, 2934-ST) (murine, UniProt Q6PHU5 74-754).
T2 chain: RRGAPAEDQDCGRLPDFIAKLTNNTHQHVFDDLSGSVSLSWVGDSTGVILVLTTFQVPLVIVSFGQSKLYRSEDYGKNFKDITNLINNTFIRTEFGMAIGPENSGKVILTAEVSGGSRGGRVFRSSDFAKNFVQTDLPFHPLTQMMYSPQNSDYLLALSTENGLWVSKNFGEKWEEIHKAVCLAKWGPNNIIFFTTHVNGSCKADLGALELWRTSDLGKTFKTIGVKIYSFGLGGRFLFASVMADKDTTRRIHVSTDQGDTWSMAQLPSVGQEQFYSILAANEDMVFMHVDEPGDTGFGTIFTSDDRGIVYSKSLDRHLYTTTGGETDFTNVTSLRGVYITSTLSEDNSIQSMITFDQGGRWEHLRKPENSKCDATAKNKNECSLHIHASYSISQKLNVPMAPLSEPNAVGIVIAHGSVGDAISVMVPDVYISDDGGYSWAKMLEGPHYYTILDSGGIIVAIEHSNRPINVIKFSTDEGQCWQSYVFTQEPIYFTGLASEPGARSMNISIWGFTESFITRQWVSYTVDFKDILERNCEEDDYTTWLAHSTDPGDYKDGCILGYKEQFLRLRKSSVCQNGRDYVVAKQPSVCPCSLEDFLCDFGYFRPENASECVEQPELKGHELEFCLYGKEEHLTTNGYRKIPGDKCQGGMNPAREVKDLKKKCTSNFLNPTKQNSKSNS

Assay [3] concerns the target T1, human sortilin (R&D Systems, 3154-ST). The source holds these as a separate data set.

Like-named read-outs stand apart in the source and are kept apart here.

The Kd is the concentration at which binding is half-saturated. Higher therefore signals a looser complex.

B1: A3-ABD (His6-A3-G4S-ABD035) (designed binder)
chain: VDNKFNKEIEEAGAEIIQLPNLNRWQKGAFIVSLKDDPSQSANLLAEAKKLNDAQAPK
The molecule B1 yielded a Kd in assay [1] of 0.118 µM.

B2: C1-ABD (His6-C1-G4S-ABD035) (designed binder)
chain: VDNKFNKERYAAKGEITYLPNLNNKQHMAFDMSLRDDPSQSANLLAEAKKLNDAQAPK
As to B2, the results for the equilibrium dissociation constant (Kd) in assay [1] and in assay [2] were 0.155 µM and 0.076 µM, respectively.

B3: G11-ABD (His6-G11-G4S-ABD035) (designed binder)
chain: VDNKFNKENAGARGEIIFLPNLNKNQGWAFKHSLMDDPSQSANLLAEAKKLNDAQAPKGGGGSLAEAKVLANRELDKYGVSDFYKRLINKAKTVEGVEALKLHILAALP
As to B3, the dissociation constant Kd in assay [1] turned out to be 0.037 µM; in assay [2], 0.057 µM; in assay [3], 0.038 µM.

B4: F6-ABD (His6-F6-G4S-ABD035) (designed binder)
chain: VDNKFNKENVWARGEITFLPNLNSKQHQAFHMSLDDDPSQSANLLAEAKKLNDAQAPK
With B4, the Kd in assay [1] came out at 0.102 µM; in assay [2] it was 0.048 µM.

These data come from article PMC11342335 (2024).
